Results from the supplement of paper PMC3334620.
Over roughly 33,000 sequences, “E-score (-0.5 to 0.5)” has its median near -0.011; the highest 2% begin near 0.28. Some of the results follow.

target: T1, Gcr1 (UniProt P07261); experiment: PBM E-score (8-mer binding enrichment) (E-score (-0.5 to 0.5)); higher = stronger / more preferred TF binding; most listed sequences are background and not binding sites; conditions: protein concentration: 100 nM; construct: GST-full length
T1 sequence: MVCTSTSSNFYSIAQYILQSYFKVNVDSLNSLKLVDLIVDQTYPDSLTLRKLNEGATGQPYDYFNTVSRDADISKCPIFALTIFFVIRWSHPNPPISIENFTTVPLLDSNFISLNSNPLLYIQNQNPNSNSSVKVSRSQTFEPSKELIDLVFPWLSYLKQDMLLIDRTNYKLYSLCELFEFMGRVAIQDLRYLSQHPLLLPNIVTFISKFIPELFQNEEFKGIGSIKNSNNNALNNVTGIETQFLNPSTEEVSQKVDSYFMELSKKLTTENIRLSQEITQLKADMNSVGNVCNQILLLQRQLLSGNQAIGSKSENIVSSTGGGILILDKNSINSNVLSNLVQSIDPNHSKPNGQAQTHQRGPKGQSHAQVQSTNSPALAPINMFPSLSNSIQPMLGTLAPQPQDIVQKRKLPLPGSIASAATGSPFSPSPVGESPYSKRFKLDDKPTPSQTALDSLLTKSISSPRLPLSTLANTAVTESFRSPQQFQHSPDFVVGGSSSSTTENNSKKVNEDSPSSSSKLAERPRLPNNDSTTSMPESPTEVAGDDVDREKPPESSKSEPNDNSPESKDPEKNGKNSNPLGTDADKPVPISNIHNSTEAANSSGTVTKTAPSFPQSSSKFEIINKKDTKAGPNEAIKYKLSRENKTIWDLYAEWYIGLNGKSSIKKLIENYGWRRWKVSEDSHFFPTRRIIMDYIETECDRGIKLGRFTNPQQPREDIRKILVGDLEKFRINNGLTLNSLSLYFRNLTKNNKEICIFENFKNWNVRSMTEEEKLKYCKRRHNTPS
Method in brief: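 Bound GST-tagged yeast transcription factors, applied at about 100-200 nM to double-stranded universal all-10-mer Agilent arrays, were detected with fluorescent anti-GST. Scans were normalised with masliner. A modified Wilcoxon-Mann-Whitney statistic, the E-score, was assigned to each ungapped eight-base word pooled with its reverse complement by the Universal PBM Analysis Suite.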

Compared with AAGGATGC, CCATGCGA is lower in “PBM E-score” value: 0.313 for the first, -0.0915 for the second.

Going from CCCGCCCC to ATCACTAA, the “PBM E-score” value falls from -0.00257 to -0.0192.

Compared with AAGAATCC, AATGAGTG is lower in “PBM E-score” value: 0.391 for the first, 0.0323 for the second.

Going from ATGCGGTC to CTGATCGC, the “PBM E-score” value falls from -0.076 to -0.159.

Going from AGGTGTAC to AGTTCCAT, the “PBM E-score” value rises from -0.199 to -0.107.

First: TATCGTGA
Second: AAACACCT
The “PBM E-score” value of the first is lower: -0.0769 for the first, 0.00912 for the second.

Going from GAGTACCA to CCTCAATA, the “PBM E-score” value rises from 0.00288 to 0.00834.

Compared with CTACTGAG, TCCAAAGA is higher in “PBM E-score” value: -0.0519 for the first, 0.0425 for the second.

First: ATTACTGA
Second: ACGCACCG
The “PBM E-score” value of the first is lower: -0.0681 for the first, 0.052 for the second.

First: CGTTGCGA
Second: AAGAAAAA
The “PBM E-score” value of the first is lower: -0.113 for the first, 0.164 for the second.

First: ATGACCTG
Second: GCGCTGAA
The “PBM E-score” value of the first is lower: -0.134 for the first, 0.00238 for the second.

Compared with TTAGACAA, GGCGTCTA is higher in “PBM E-score” value: -0.00955 for the first, 0.342 for the second.

First: GGTTGTGA
Second: ACGCCCAC
The “PBM E-score” value of the first is lower: -0.197 for the first, 0.099 for the second.

Going from GGACTACC to AAGATGTG, the “PBM E-score” value rises from 0.1 to 0.169.

Going from AAAAGACA to ACGCACTG, the “PBM E-score” value falls from 0.0152 to -0.0816.

Going from GCTATTTA to GAAGCATA, the “PBM E-score” value rises from -0.162 to -0.108.

Compared with ATGACGGA, CATGGAAA is higher in “PBM E-score” value: -0.06 for the first, 0.00067 for the second.

Going from ACAGCAGG to AATCATCA, the “PBM E-score” value rises from -0.0307 to 0.0743.

First: CCACGCGG
Second: CCCATTAA
The “PBM E-score” value of the first is lower: -0.0377 for the first, 0.0379 for the second.

Compared with GAGTGGGA, ACCGAGAA is lower in “PBM E-score” value: 0.115 for the first, -0.0242 for the second.

Compared with CTCCTAAC, CTGTTTAC is lower in “PBM E-score” value: 0.0288 for the first, -0.0882 for the second.

Going from ACTCTGCC to CCATAGAC, the “PBM E-score” value rises from -0.2 to 0.0102.

First: GTTATCCA
Second: CCAGTTAA
The “PBM E-score” value of the first is lower: -0.231 for the first, 0.192 for the second.

First: AATTCATA
Second: GAGCGCTA
The “PBM E-score” value of the first is higher: 0.0378 for the first, -0.0096 for the second.

Going from AGTGACAT to GCCAGGAA, the “PBM E-score” value falls from -0.0435 to -0.0468.

Going from CAAAGCTC to CCAAACAG, the “PBM E-score” value rises from -0.0592 to 0.0983.

Going from GAGTAGAC to AACGTAGG, the “PBM E-score” value falls from 0.119 to -0.0478.

Compared with AACACGTA, GACCGTCC is lower in “PBM E-score” value: 0.0489 for the first, -0.221 for the second.

First: ACGAACCA
Second: CCATTTGC
The “PBM E-score” value of the first is higher: 0.00119 for the first, -0.0113 for the second.

First: CAGCGAGG
Second: AAACGATT
The “PBM E-score” value of the first is lower: -0.0786 for the first, -0.0519 for the second.

Compared with GCATCTGA, CAAGTAAG is lower in “PBM E-score” value: 0.185 for the first, -0.0274 for the second.

First: GCCTATAC
Second: AGATTCCT
The “PBM E-score” value of the first is lower: -0.0323 for the first, 0.399 for the second.

Compared with GCAGTGCC, ATATGTCA is higher in “PBM E-score” value: -0.192 for the first, 0.0665 for the second.

First: CAAGGTGA
Second: ATAACCGA
The “PBM E-score” value of the first is lower: -0.0448 for the first, 0.0605 for the second.

First: TGGAACCA
Second: CGGCAGAA
The “PBM E-score” value of the first is higher: 0.357 for the first, -0.00941 for the second.

Compared with GGTCACGA, CGCAGCCA is higher in “PBM E-score” value: -0.138 for the first, 0.365 for the second.

Going from CGCCGAAC to GTTTGCGA, the “PBM E-score” value falls from 0.0411 to -0.00846.

Compared with ATGCGTAC, TCACAAGA is higher in “PBM E-score” value: -0.0819 for the first, -0.0185 for the second.

Compared with CGCGTTCC, ATTCGACC is lower in “PBM E-score” value: 0.125 for the first, -0.0638 for the second.

Compared with TGTAATAA, CTGATGAA is lower in “PBM E-score” value: 0.101 for the first, -0.0679 for the second.

Going from AACCTGTC to ATAGCTCG, the “PBM E-score” value rises from -0.0353 to 0.0541.

Compared with CTACCAGA, ACGACACA is lower in “PBM E-score” value: 0.131 for the first, 0.051 for the second.

Going from ATAGCCAT to AGTTGGGA, the “PBM E-score” value rises from -0.215 to 0.15.
